Some of the results follow.
Experiments:
HSkMC = human skeletal muscle cells; assay: cytotoxicity call (relative viability < 0.9); conditions: 10 µM
HepG2 = assay: cytotoxicity call (relative viability < 0.9); conditions: 10 µM
S. aureus RN4220 = assay: growth inhibition call (relative growth <= 0.2); conditions: 50 µM

CS(=O)(=O)N1[C@@H]2Cn3c(ccc(C4=CCCCC4)c3=O)[C@H]1[C@@H](C(=O)N1CCOCC1)[C@@H]2CO
inactive: cytotoxicity call (HSkMC) | cytotoxicity call (HepG2) | growth inhibition call (S. aureus RN4220)

CCOc1ccc(S(N)(=O)=O)cc1
inactive: cytotoxicity call (HSkMC) | cytotoxicity call (HepG2) | growth inhibition call (S. aureus RN4220)

CN(C)CCCNC(=O)C[C@@H]1CC[C@@H]2[C@H](COC[C@H](O)CN2C(=O)c2cc(Cl)cc(Cl)c2)O1
inactive: cytotoxicity call (HSkMC) | cytotoxicity call (HepG2) | growth inhibition call (S. aureus RN4220)

Nc1nc(N2CCC[C@@H](Cn3cc(CO)nn3)C2)c2c[nH]nc2n1
inactive: cytotoxicity call (HSkMC) | cytotoxicity call (HepG2) | growth inhibition call (S. aureus RN4220)

C[C@@H]1CCCCO[C@@H](CN(C)S(=O)(=O)c2ccc(Cl)cc2)[C@@H](C)CN([C@H](C)CO)C(=O)c2cc(NC(=O)CCC(F)(F)F)ccc2O1
inactive: cytotoxicity call (HSkMC) | cytotoxicity call (HepG2) | growth inhibition call (S. aureus RN4220)

C[N+](C)(C)CCCCCCNC(=O)[C@H]1C[C@H]2C(=O)N3CCC[C@H]3C(=O)N2[C@H]1c1cccc(OCCO)c1
inactive: cytotoxicity call (HSkMC) | cytotoxicity call (HepG2) | growth inhibition call (S. aureus RN4220)

CCCC(=O)Nc1ccc2c(c1)OC[C@@H](C)N(Cc1ccc(-c3ccccn3)cc1)C[C@H](C)[C@H](OC)CN(C)C2=O
inactive: cytotoxicity call (HSkMC) | cytotoxicity call (HepG2) | growth inhibition call (S. aureus RN4220)

C[C@H]1CN([C@@H](C)CO)C(=O)c2cc(NC(=O)Cn3cnnn3)ccc2O[C@H]1CN(C)Cc1ccc(C(=O)O)cc1
inactive: cytotoxicity call (HSkMC) | cytotoxicity call (HepG2) | growth inhibition call (S. aureus RN4220)

COCCOC(=O)N1C(=O)[C@@]2(c3cc(C#Cc4ccc(OC)cc4)ccc31)[C@H](C(=O)N1CCN(c3ncccn3)CC1)[C@H]1C(=O)O[C@H](c3ccccc3)[C@H](c3ccccc3)N1[C@@H]2c1ccc(OCCO)cc1
inactive: cytotoxicity call (HSkMC) | cytotoxicity call (HepG2) | growth inhibition call (S. aureus RN4220)

Cc1cc(C(=O)Nc2ccc(S(=O)(=O)O)c3cc(S(=O)(=O)O)cc(S(=O)(=O)O)c23)ccc1NC(=O)c1cccc(NC(=O)Nc2cccc(C(=O)Nc3cc(C(=O)Nc4ccc(S(=O)(=O)O)c5cc(S(=O)(=O)O)cc(S(=O)(=O)O)c45)ccc3C)c2)c1
inactive: cytotoxicity call (HSkMC) | cytotoxicity call (HepG2) | growth inhibition call (S. aureus RN4220)

COc1ccccc1S(=O)(=O)N[C@@H]1C=C[C@@H](CC(=O)N2CCOCC2)O[C@@H]1CO
inactive: cytotoxicity call (HSkMC) | cytotoxicity call (HepG2) | growth inhibition call (S. aureus RN4220)

C[C@@H]1CN([C@@H](C)CO)C(=O)c2cc(NC(=O)Cn3cnnn3)ccc2O[C@@H]1CN(C)Cc1ccc(-c2ccccc2)cc1
inactive: cytotoxicity call (HSkMC) | cytotoxicity call (HepG2) | growth inhibition call (S. aureus RN4220)

O=S1(=O)CC[C@H](N2CCOCC2)C1
inactive: cytotoxicity call (HSkMC) | cytotoxicity call (HepG2) | growth inhibition call (S. aureus RN4220)

C[C@@H]1CN([C@H](C)CO)C(=O)c2cccc(NS(=O)(=O)c3ccccc3)c2O[C@H]1CN(C)S(=O)(=O)c1ccccc1
inactive: cytotoxicity call (HSkMC) | cytotoxicity call (HepG2) | growth inhibition call (S. aureus RN4220)

CO[C@H]1CN(C)C(=O)c2cc(NC(=O)C3CCOCC3)ccc2OC[C@H](C)N(Cc2cccnc2)C[C@@H]1C
inactive: cytotoxicity call (HSkMC) | cytotoxicity call (HepG2) | growth inhibition call (S. aureus RN4220)

C[C@@H]1CN([C@@H](C)CO)C(=O)c2cccc(NC(=O)c3ccc(-c4nccs4)cc3)c2O[C@H]1CN(C)Cc1ccc(C(=O)O)cc1
inactive: cytotoxicity call (HSkMC) | cytotoxicity call (HepG2) | growth inhibition call (S. aureus RN4220)

CC1(C)Cc2cc(CN)ccc2O1
inactive: cytotoxicity call (HSkMC) | cytotoxicity call (HepG2) | growth inhibition call (S. aureus RN4220)

COc1ccc(S(=O)(=O)Nc2cccc3c2O[C@@H](CN(C)Cc2ccc(-c4ccccc4)cc2)[C@@H](C)CN([C@H](C)CO)C3=O)cc1
inactive: cytotoxicity call (HSkMC) | cytotoxicity call (HepG2) | growth inhibition call (S. aureus RN4220)

COc1ccc2c3c([nH]c2c1)[C@H](CO)N(C[C@]13CCN(CC1)Cc1nccs1)C(=O)C1CCOCC1
inactive: cytotoxicity call (HSkMC) | cytotoxicity call (HepG2) | growth inhibition call (S. aureus RN4220)

CC(C)NC(=O)N(C)C[C@@H]1Oc2ccc(NC(=O)CCC(F)(F)F)cc2CC(=O)N([C@@H](C)CO)C[C@@H]1C
inactive: cytotoxicity call (HSkMC) | cytotoxicity call (HepG2) | growth inhibition call (S. aureus RN4220)

C[C@@H]1CN([C@H](C)CO)C(=O)c2cc(NC(=O)c3ccncc3)ccc2O[C@@H](C)CCCCO[C@@H]1CN(C)C(=O)Nc1cccc2ccccc12
inactive: cytotoxicity call (HSkMC) | cytotoxicity call (HepG2) | growth inhibition call (S. aureus RN4220)

O=C(C[C@H]1CC[C@H]2[C@@H](COC[C@@H](O)CN2S(=O)(=O)c2ccccc2)O1)NCCN1CCCC1
inactive: cytotoxicity call (HSkMC) | cytotoxicity call (HepG2) | growth inhibition call (S. aureus RN4220)

CO[C@H]1CN(C)C(=O)c2ccc(NC(=O)Nc3cccc(F)c3)cc2OC[C@H](C)N(C(=O)Nc2c(C)noc2C)C[C@@H]1C
inactive: cytotoxicity call (HSkMC) | cytotoxicity call (HepG2) | growth inhibition call (S. aureus RN4220)

O=C(C[C@H]1C[C@H]2c3cc(NC(=O)Nc4ccc(C(F)(F)F)cc4)ccc3O[C@H]2[C@H](CO)O1)NCc1ccc(Cl)cc1
inactive: cytotoxicity call (HSkMC) | cytotoxicity call (HepG2) | growth inhibition call (S. aureus RN4220)

CO[C@H]1CN(C)C(=O)c2cc(NC(=O)Nc3cccc(Cl)c3)ccc2OC[C@H](C)N(C(=O)Nc2c(C)noc2C)C[C@@H]1C
inactive: cytotoxicity call (HSkMC) | cytotoxicity call (HepG2) | growth inhibition call (S. aureus RN4220)

From the antibiotic and cytotoxicity screens of Wong et al. (2023)
